The list shows a part of the results.
What follows are sequences tested against T1, OsWOX13 (Oryza sativa, UniProt Q5QMM3 1-267) (assay: protein-binding microarray (RPBM); PBS, 2% BSA, 51.3 ng/ul salmon testes DNA, 50 uM zinc acetate, 200 nM TF, 25 C, 1 h; high values mean tight binding). Conditions: protein: recombinant; tags: N-terminal polyhistidine and DsRed monomer fusion (pET32a); label: CyDye5-dUTP incorporated in the synthesized complementary strand; 3' TTTTT single-stranded linker to array surface; dsDNA, one strand shown.
T1 sequence: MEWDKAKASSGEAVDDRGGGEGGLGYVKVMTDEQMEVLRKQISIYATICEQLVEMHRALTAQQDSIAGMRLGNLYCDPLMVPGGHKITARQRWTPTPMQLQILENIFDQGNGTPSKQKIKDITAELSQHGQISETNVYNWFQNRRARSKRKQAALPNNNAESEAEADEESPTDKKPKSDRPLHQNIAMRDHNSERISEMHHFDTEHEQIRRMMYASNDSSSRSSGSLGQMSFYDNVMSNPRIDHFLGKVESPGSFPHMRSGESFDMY
Summary of the method: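 Binding signal here means per-feature fluorescence intensity in arbitrary units. The values were read on an Axon 4000B scanner after a custom Agilent array, double-stranded by primer extension with Cy5-dUTP, was incubated with 200 nM protein at 25 °C for 1 h in PBS with 2% BSA, salmon testes DNA and 50 µM zinc acetate, then washed. The proteins were transcription factors with an N-terminal polyhistidine tag and DsRed, expressed in E. coli BL21-CodonPlus and purified on Ni–NTA.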

Sequence | binding signal
TTCTCAATTTTCTTTTAATATATTGTTAAACGTGACCGTTCGGAGTCACCTAGTGCAG | 9240 fluorescence intensity (a.u.)
TTTAATTTAATTCGAGGAGGAGAAGAAGCAGAGGAGGAGGCGGAGTCACCTAGTGCAG | 3920 fluorescence intensity (a.u.)
TACAACAATAATTTTGATCAAAGATTAAGCTATTTTGACTCGGAGTCACCTAGTGCAG | 9830 fluorescence intensity (a.u.)
ATTAAATTTAATTCATATTGTACTTGAATGTTGGTCAAAACGGAGTCACCTAGTGCAG | 23400 fluorescence intensity (a.u.)
AAATAATTACACGTGACCAAAACAATACTACTACGACGACCGGAGTCACCTAGTGCAG | 18200 fluorescence intensity (a.u.)
ATATATATATATATATATATATATCACTTTTCAATAAATACGGAGTCACCTAGTGCAG | 28400 fluorescence intensity (a.u.)
GTGTGAAATTGACATGTGGGTCCCATGGGTATTATTATTACGGAGTCACCTAGTGCAG | 8480 fluorescence intensity (a.u.)
ATCCCAAAATAATGTGTTCGGGTGGGCGGGCGGGAAATATCGGAGTCACCTAGTGCAG | 4570 fluorescence intensity (a.u.)
TAAAATAATTAATACTTAATTATTATATGCTAATAGTTTACGGAGTCACCTAGTGCAG | 31900 fluorescence intensity (a.u.)
TGACTACATCACCGTGCATTTAATTACTTTCTGTACTTCACGGAGTCACCTAGTGCAG | 4510 fluorescence intensity (a.u.)
TTTGATAAAATAGATTAATACGATATATACCACTCCACAACGGAGTCACCTAGTGCAG | 16300 fluorescence intensity (a.u.)
AATGATGATTGATGGGTCATGGCACAAGGACGCTAAACCGCGGAGTCACCTAGTGCAG | 40700 fluorescence intensity (a.u.)
TTAGTAATTTGTTGCCTCCTTAAGCAAATTTGAATTGGATCGGAGTCACCTAGTGCAG | 10200 fluorescence intensity (a.u.)
TTTAATTAGATTCATCATGAAATATGTCTTTATTGCATTTCGGAGTCACCTAGTGCAG | 32300 fluorescence intensity (a.u.)
TATGTTGCCTATCAATCAAATAATAATTAGCTGTAAATACCGGAGTCACCTAGTGCAG | 33800 fluorescence intensity (a.u.)
TAATCTTAAATTTATAATTTAAAGATGTTTTCATCGTAATCGGAGTCACCTAGTGCAG | 8740 fluorescence intensity (a.u.)
GACTAATTAATAATTAGTTAATTGACTAATCAGGATAATTCGGAGTCACCTAGTGCAG | 46800 fluorescence intensity (a.u.)
TGAGAGTGATTGGGGTTTCACATCTTTTATGCCTTTGAGTCGGAGTCACCTAGTGCAG | 45200 fluorescence intensity (a.u.)
TCTGATGGACTTTTCGCTCCTCCCTCTTGTTATAAATAGGCGGAGTCACCTAGTGCAG | 13600 fluorescence intensity (a.u.)
TTATCAATCTACATCGTTATAATTTAGTTCCACCGTAATTCGGAGTCACCTAGTGCAG | 19800 fluorescence intensity (a.u.)
ATAAATATTAATTAAACTTTAAAAGAAGAAAATCTCATAGCGGAGTCACCTAGTGCAG | 13700 fluorescence intensity (a.u.)

Sequence | binding signal
GATCTGCAATTGGACCATGATTGTTGTCTTTGGTCATCAGCGGAGTCACCTAGTGCAG | 5900 fluorescence intensity (a.u.)
AGTGTAATTAATGGGCTTCTTTTCGATGGCTCTTGTTGGGCGGAGTCACCTAGTGCAG | 22600 fluorescence intensity (a.u.)
AAAACTTAATTAAGCACACGTTACTACCATCTCATTTTGCCGGAGTCACCTAGTGCAG | 25500 fluorescence intensity (a.u.)
ACTTAGATGATATGCAATAAACAGGTGGACATCCACTCGACGGAGTCACCTAGTGCAG | 9990 fluorescence intensity (a.u.)
CGTCCCATCACTAATCTGATAAATCTTGCAGAGATTAACGCGGAGTCACCTAGTGCAG | 4410 fluorescence intensity (a.u.)
AATAACTAATTGTACATATTACGACTAATTTGCGAGATGACGGAGTCACCTAGTGCAG | 35000 fluorescence intensity (a.u.)
TTGTAATTGTCGAATCGTCTCTAGATTTATATATATAAAGCGGAGTCACCTAGTGCAG | 17700 fluorescence intensity (a.u.)
TTTATTCCGAATATTAATTAATCTCGTATTGGGTTCTTATCGGAGTCACCTAGTGCAG | 5880 fluorescence intensity (a.u.)
ACACTAATTACAAAACCCATTTCATAACATTGGACTAATTCGGAGTCACCTAGTGCAG | 28900 fluorescence intensity (a.u.)
GCGCAGGCAATCAATGGCGGCAGGGCAGAGTGACGAGGAGCGGAGTCACCTAGTGCAG | 3190 fluorescence intensity (a.u.)
ATTATTATATAATAATTTATTTGTCTTGGTACGCTGTTGGCGGAGTCACCTAGTGCAG | 5830 fluorescence intensity (a.u.)
CAGCTGTTCTAATGATTTGAGATATATCAAACTTGTCAAACGGAGTCACCTAGTGCAG | 3250 fluorescence intensity (a.u.)
TACCCAATTCAAATTTGAATTTGAATTATATCTGATTCAACGGAGTCACCTAGTGCAG | 4680 fluorescence intensity (a.u.)
TTGATGTGATAGAAAAGTTGGAATTTCGAAGAAATAGTTTCGGAGTCACCTAGTGCAG | 14900 fluorescence intensity (a.u.)
AGGGCAATTGACAAACAGGTGGTTCCCGGTTTCTGGCCCACGGAGTCACCTAGTGCAG | 11100 fluorescence intensity (a.u.)
GGGGTGAATAACAAATTAACCAACGCCATGAGCATTCATGCGGAGTCACCTAGTGCAG | 4190 fluorescence intensity (a.u.)
AAATCAATAATTAAATATAGTTTCATAATATATTTATCTTCGGAGTCACCTAGTGCAG | 22700 fluorescence intensity (a.u.)
ATAAAACTGGGATTAAAACCACAGATTTCATAAGTTGAGGCGGAGTCACCTAGTGCAG | 3690 fluorescence intensity (a.u.)
ATCTTATAATTAAACCGTAAGTTCTTAACTCAAACCGACACGGAGTCACCTAGTGCAG | 5740 fluorescence intensity (a.u.)
AATTGACGTGATTTAAAATGCAACAAACGTGAAGTTAGCTCGGAGTCACCTAGTGCAG | 21200 fluorescence intensity (a.u.)
TGACTGAATTAAAGTCTGTAATTTCTTCAGATCTAGCCGTCGGAGTCACCTAGTGCAG | 3660 fluorescence intensity (a.u.)

Sequence | binding signal
TCAGTAAATCATATTTATTTATACTATCACTTCAACCATTCGGAGTCACCTAGTGCAG | 3600 fluorescence intensity (a.u.)
CTCCTAATTTACTTATGTTAAGCAGATTTTGTTGATAAATCGGAGTCACCTAGTGCAG | 20800 fluorescence intensity (a.u.)
CAACTATTATATAAATTGGCTATTATATTAGCTATAGATGCGGAGTCACCTAGTGCAG | 11400 fluorescence intensity (a.u.)
ATGATTAAAATTGATTAAGCCGTCGTCTCCCTCGTCTCCGCGGAGTCACCTAGTGCAG | 46200 fluorescence intensity (a.u.)
GTTGATTAATGATTAATTACATCGCAGACATGCCATTTTACGGAGTCACCTAGTGCAG | 45400 fluorescence intensity (a.u.)
TAATTGTAATTATTATTCACAAGATGGTGTGGTAATATCCCGGAGTCACCTAGTGCAG | 10300 fluorescence intensity (a.u.)
GGGCACATCATTTTGATTGGACTATTTAGCCTAGTTTGCACGGAGTCACCTAGTGCAG | 14300 fluorescence intensity (a.u.)
ATTTGTATCAATCATATATTGATGAGATATTGCACGAGTTCGGAGTCACCTAGTGCAG | 32100 fluorescence intensity (a.u.)
CGGTTTATAAGTGATTATATTTCAGCTCCCATACAACCTACGGAGTCACCTAGTGCAG | 3520 fluorescence intensity (a.u.)
GAGACGTAAATTAGACTTAGTTAACCATATAAGACAAATGCGGAGTCACCTAGTGCAG | 21900 fluorescence intensity (a.u.)
ATTAATTCATGATTAGCCTACATAATACTACAGTAAGCATCGGAGTCACCTAGTGCAG | 29200 fluorescence intensity (a.u.)
GTCCCAATGATTGCCAGCCCCGGTGGACGGGTGTAGAAGCCGGAGTCACCTAGTGCAG | 38100 fluorescence intensity (a.u.)
TCAACAAATTATTAGTTTGTAGGGTGTTTTCAATCGTGAACGGAGTCACCTAGTGCAG | 6200 fluorescence intensity (a.u.)
AATTTAACATATAAATTTCAAATCGATTATGAATGGATATCGGAGTCACCTAGTGCAG | 7690 fluorescence intensity (a.u.)
TATATTTAATTATTGATTTGATGTAACCAATTTAGTATTACGGAGTCACCTAGTGCAG | 23400 fluorescence intensity (a.u.)
GCTTTGAGTTAATTAGGCACTAATCGGCACAATTTTATAGCGGAGTCACCTAGTGCAG | 7480 fluorescence intensity (a.u.)
ATTAACTATGATTTTGCAGCATGCCATCATTTCTCTTTCTCGGAGTCACCTAGTGCAG | 9570 fluorescence intensity (a.u.)
CAGATGACATTGACATTGATACTAGTGGGAATTTCCCCTGCGGAGTCACCTAGTGCAG | 4060 fluorescence intensity (a.u.)
GATTGATTGGGACGCTGTCCAAGATAAATTGTGGACAGACCGGAGTCACCTAGTGCAG | 34300 fluorescence intensity (a.u.)
GAGAATAATAGTCAATCTGTAGCTCAGTGCCCTTTTCTTCCGGAGTCACCTAGTGCAG | 10800 fluorescence intensity (a.u.)
GTACCTGATTAGTACTAAGTGATTAGTTAGTTTAGACACGCGGAGTCACCTAGTGCAG | 31800 fluorescence intensity (a.u.)

Sequence | binding signal
AGACTGCTGAAGTGAATGATTGATGTTGTCCCATAAGCAACGGAGTCACCTAGTGCAG | 8210 fluorescence intensity (a.u.)
AACTCATCATCTAATTTGATGTCCTAAAGCAAATTTTGTGCGGAGTCACCTAGTGCAG | 9420 fluorescence intensity (a.u.)
CACGTGACTGGGCCGTGCGGTGAATTTTACATTTTACCCCCGGAGTCACCTAGTGCAG | 3970 fluorescence intensity (a.u.)
ACAACTAAATTAGTTTCATCTAATCTTTAAACGTTGGTCTCGGAGTCACCTAGTGCAG | 23800 fluorescence intensity (a.u.)
TGTAAATATATTATGATTGTAGTATAACTTATATAGTATTCGGAGTCACCTAGTGCAG | 10900 fluorescence intensity (a.u.)
ATTTAATTATCAGCTACCATGCCTAGCTTAGCTAGCTGTTCGGAGTCACCTAGTGCAG | 19900 fluorescence intensity (a.u.)
AGTCTCCCAATCCCAACTGATTGTTCAGATAGGTCAGTTACGGAGTCACCTAGTGCAG | 4160 fluorescence intensity (a.u.)
CTATTATATTGACTGAGCCCATCATAGGCCGAGAAGGCAACGGAGTCACCTAGTGCAG | 8890 fluorescence intensity (a.u.)
TAAAGTTGATGAAAATAATGTTAATTACCAGGTTCATGTTCGGAGTCACCTAGTGCAG | 9040 fluorescence intensity (a.u.)
AAGACGGATGATCAAAATTAGACACGAAAACTTATGGATGCGGAGTCACCTAGTGCAG | 6280 fluorescence intensity (a.u.)
TTAAAATTTATTTCATTATATTTAGAAAGTTATGCAAAGTCGGAGTCACCTAGTGCAG | 5160 fluorescence intensity (a.u.)
ATTTAATAGTATTAAACGTAGATTACTGATAAAACCTATTCGGAGTCACCTAGTGCAG | 4260 fluorescence intensity (a.u.)
AGGTGGAGGTGGGGAGGATGCGGGAGAGGGAGGTGATGATCGGAGTCACCTAGTGCAG | 5400 fluorescence intensity (a.u.)
ACTTACTGATACTAATTTGCTTCTTGGTGGGATAATGGGACGGAGTCACCTAGTGCAG | 19900 fluorescence intensity (a.u.)
TTTAGGTTGTCAATGCTAATCAACAGTGTATTGATACACACGGAGTCACCTAGTGCAG | 7210 fluorescence intensity (a.u.)
GCACGTGATTAAATTTATACTTTAAAACATACTACGTTCTCGGAGTCACCTAGTGCAG | 30200 fluorescence intensity (a.u.)
GGTGTGACCATATATTAATTATGTAATACTCCCTCCATATCGGAGTCACCTAGTGCAG | 5070 fluorescence intensity (a.u.)
CATGCCATTTTCAGAGATTGATTAATCTGTTGTTTATGTCCGGAGTCACCTAGTGCAG | 16500 fluorescence intensity (a.u.)
TGTGCTAACTGTTAGTGGTGACTGGTGACAAGTACATCACCGGAGTCACCTAGTGCAG | 5650 fluorescence intensity (a.u.)
GAAATGATGGAAAATAGATGTCTTTTAGAGAGAAGAATCTCGGAGTCACCTAGTGCAG | 7560 fluorescence intensity (a.u.)
TTCAGTAATTTGCTATACTCTTTAGAAATATTATTACATGCGGAGTCACCTAGTGCAG | 9000 fluorescence intensity (a.u.)

Source: publication PMC7819943, “Rice protein-binding microarrays: a tool to detect cis-acting elements near promoter regions in rice”
